# Measurements taken from the supplement of paper PMC8728848.
# The list shows a part of the results.
# B1: Epa23 (Candida glabrata) (protein)
# chain: MGSSHHHHHHSSGLVPRGSHMIPNPFEGTINNFPSGCSPNHGLYNRGLTMELYNYSYIHPQSIQSYFNTSTLKKMEKGQCWDPSYLDVNYPRTGYKTHNRFAKVNGIDGILDFEFNPTRSCVPSKGQLPQNYNYPLQFTLSNFTMLLYGYFKPKVTAKHTFTIFADDLLFLNFGAGNAFDCCQQQDTIDDFGNYQAYALWGSDTQQNTLTVNLDANIYYPIRMFYNNRDFKGALNMYFTTDESNTKINDFSGYLFNIPDSSEGCPAHISYETECGNVSG
# Key:
# Assay in all cases: glycan array binding signal (z-score within array); higher = stronger binding
# Details in all cases: glycan notation: IUPAC condensed, linker removed
# [1] = target: Fuc(a1-2)Gal(b1-4)GlcNAc(b1-3)Gal(b1-4)GlcNAc(b1-2)Man(a1-3)[Fuc(a1-2)Gal(b1-4)GlcNAc(b1-3)Gal(b1-4)GlcNAc(b1-2)Man(a1-6)]Man(b1-4)GlcNAc(b1-4)GlcNAc
# Outline: (§1)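 The Consortium for Functional Glycomics database supplied 3228 glycan arrays, of which those lacking an available protein sequence were dropped. The binding signal, a within-array Z-score, was averaged across arrays of the same protein sequence and across linkers. Negative scores can be read as non-binding.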
# [2] = target: Fuc(a1-2)Gal(b1-4)GlcNAc(b1-3)Gal(b1-4)GlcNAc(b1-3)Gal(b1-4)GlcNAc
# Outline: as §1
# [3] = target: Fuc(a1-2)Gal(b1-4)GlcNAc(b1-3)GalNAc
# Outline: as §1
# [4] = target: Fuc(a1-2)Gal(b1-4)GlcNAc(b1-3)[Fuc(a1-2)Gal(b1-4)GlcNAc(b1-6)]GalNAc
# Outline: as §1
# [5] = target: Fuc(a1-2)Gal(b1-4)GlcNAc(b1-3)[Fuc(a1-3)[Gal(b1-4)]GlcNAc(b1-6)]Gal(b1-4)Glc
# Outline: as §1
# [6] = target: Fuc(a1-2)Gal(b1-4)GlcNAc(b1-6)GalNAc
# Outline: as §1
# [7] = target: Fuc(a1-2)Gal(b1-4)GlcNAc6S
# Outline: as §1
# [8] = target: Fuc(a1-2)Gal(b1-4)[Fuc(a1-3)]GlcNAc
# Outline: as §1
# [9] = target: Fuc(a1-2)Gal(b1-4)[Fuc(a1-3)]GlcNAc(b1-2)Man(a1-3)[Fuc(a1-2)Gal(b1-4)[Fuc(a1-3)]GlcNAc(b1-2)Man(a1-6)]Man(b1-4)GlcNAc(b1-4)[Fuc(a1-6)]GlcNAc
# Outline: as §1
# [10] = target: Fuc(a1-2)Gal(b1-4)[Fuc(a1-3)]GlcNAc(b1-2)[Fuc(a1-2)Gal(b1-4)[Fuc(a1-3)]GlcNAc(b1-4)]Man(a1-3)[Fuc(a1-2)Gal(b1-4)[Fuc(a1-3)]GlcNAc(b1-2)Man(a1-6)]Man(b1-4)GlcNAc(b1-4)GlcNAc
# Outline: as §1
# [11] = target: Fuc(a1-2)Gal(b1-4)[Fuc(a1-3)]GlcNAc(b1-3)Gal(b1-4)[Fuc(a1-3)]GlcNAc
# Outline: as §1
# [12] = target: Fuc(a1-2)Gal(b1-4)[Fuc(a1-3)]GlcNAc(b1-3)Gal(b1-4)[Fuc(a1-3)]GlcNAc(b1-3)Gal(b1-4)[Fuc(a1-3)]GlcNAc
# Outline: as §1
# [13] = target: Fuc(a1-2)Gal(b1-4)[Fuc(a1-3)]GlcNAc(b1-3)GalNAc
# Outline: as §1
# [14] = target: Fuc(a1-2)Gal(b1-4)[Fuc(a1-3)]GlcNAc(b1-3)[Neu5Ac(a2-6)Gal(b1-4)GlcNAc(b1-6)]Gal(b1-4)Glc
# Outline: as §1
# [15] = target: Fuc(a1-2)Gal3S(b1-4)GlcNAc
# Outline: as §1
# [16] = target: Fuc(a1-2)Gal6S(b1-3)GlcNAc
# Outline: as §1
# [17] = target: Fuc(a1-2)Gal6S(b1-3)GlcNAc6S
# Outline: as §1
# Fuc(a1-2)Gal6S(b1-4)Glc = target: Fuc(a1-2)Gal6S(b1-4)Glc
# Outline: as §1
# [18] = target: Fuc(a1-2)Gal6S(b1-4)Glc6S
# Outline: as §1
# Fuc(a1-2)[Gal(a1-3)]Gal = target: Fuc(a1-2)[Gal(a1-3)]Gal
# Outline: as §1
# [19] = target: Fuc(a1-2)[Gal(a1-3)]Gal(b1-3)GalNAc
# Outline: as §1
# [20] = target: Fuc(a1-2)[Gal(a1-3)]Gal(b1-3)GalNAc(b1-3)Gal(a1-4)Gal(b1-4)Glc
# Outline: as §1
# [21] = target: Fuc(a1-2)[Gal(a1-3)]Gal(b1-3)GlcNAc
# Outline: as §1
# [22] = target: Fuc(a1-2)[Gal(a1-3)]Gal(b1-3)GlcNAc(b1-2)Man(a1-3)[Fuc(a1-2)[Gal(a1-3)]Gal(b1-3)GlcNAc(b1-2)Man(a1-6)]Man(b1-4)GlcNAc(b1-4)GlcNAc
# Outline: as §1
# [23] = target: Fuc(a1-2)[Gal(a1-3)]Gal(b1-3)GlcNAc(b1-2)Man(a1-3)[Fuc(a1-2)[Gal(a1-3)]Gal(b1-3)GlcNAc(b1-2)Man(a1-6)]Man(b1-4)GlcNAc(b1-4)[Fuc(a1-6)]GlcNAc
# Outline: as §1
# [24] = target: Fuc(a1-2)[Gal(a1-3)]Gal(b1-3)GlcNAc(b1-3)GalNAc
# Outline: as §1
# [25] = target: Fuc(a1-2)[Gal(a1-3)]Gal(b1-3)GlcNAc(b1-6)GalNAc
# Outline: as §1
# [26] = target: Fuc(a1-2)[Gal(a1-3)]Gal(b1-4)Glc
# Outline: as §1
# [27] = target: Fuc(a1-2)[Gal(a1-3)]Gal(b1-4)GlcNAc
# Outline: as §1
# [28] = target: Fuc(a1-2)[Gal(a1-3)]Gal(b1-4)GlcNAc(b1-2)Man
# Outline: as §1
binder,measurement,setting,value
B1,glycan array binding signal (z-score),[1],-0.226
same,glycan array binding signal (z-score),[2],-0.283
same,glycan array binding signal (z-score),[3],-0.207
same,glycan array binding signal (z-score),[4],-0.14
same,glycan array binding signal (z-score),[5],-0.178
same,glycan array binding signal (z-score),[6],-0.222
same,glycan array binding signal (z-score),[7],-0.169
same,glycan array binding signal (z-score),[8],-0.251
same,glycan array binding signal (z-score),[9],-0.119
same,glycan array binding signal (z-score),[10],-0.161
same,glycan array binding signal (z-score),[11],-0.188
same,glycan array binding signal (z-score),[12],-0.161
same,glycan array binding signal (z-score),[13],-0.202
same,glycan array binding signal (z-score),[14],-0.221
same,glycan array binding signal (z-score),[15],0.334
same,glycan array binding signal (z-score),[16],-0.255
same,glycan array binding signal (z-score),[17],-0.167
same,glycan array binding signal (z-score),Fuc(a1-2)Gal6S(b1-4)Glc,-0.135
same,glycan array binding signal (z-score),[18],-0.134
same,glycan array binding signal (z-score),Fuc(a1-2)[Gal(a1-3)]Gal,-0.234
same,glycan array binding signal (z-score),[19],-0.19
same,glycan array binding signal (z-score),[20],-0.242
same,glycan array binding signal (z-score),[21],-0.176
same,glycan array binding signal (z-score),[22],-0.199
same,glycan array binding signal (z-score),[23],-0.211
same,glycan array binding signal (z-score),[24],-0.247
same,glycan array binding signal (z-score),[25],-0.225
same,glycan array binding signal (z-score),[26],-0.204
same,glycan array binding signal (z-score),[27],-0.198
same,glycan array binding signal (z-score),[28],-0.173
